# Laboratory results as given in paper PMC4336329 (PLoS ONE, 2015).
# The campaign covered roughly 310,000 compounds. About 2,200 (0.71%) showed an effect of 50% or more. The effect is printed as a negative number. The list shows a part of the results.
# Target: human ether-à-go-go-related gene (hERG) potassium channel (human, UniProt Q12809)
# Experiment: primary screen, population patch clamp on CHO cells stably expressing hERG
# Sequence of human ether-à-go-go-related gene (hERG) potassium channel (Q12809 whole entry, looked up): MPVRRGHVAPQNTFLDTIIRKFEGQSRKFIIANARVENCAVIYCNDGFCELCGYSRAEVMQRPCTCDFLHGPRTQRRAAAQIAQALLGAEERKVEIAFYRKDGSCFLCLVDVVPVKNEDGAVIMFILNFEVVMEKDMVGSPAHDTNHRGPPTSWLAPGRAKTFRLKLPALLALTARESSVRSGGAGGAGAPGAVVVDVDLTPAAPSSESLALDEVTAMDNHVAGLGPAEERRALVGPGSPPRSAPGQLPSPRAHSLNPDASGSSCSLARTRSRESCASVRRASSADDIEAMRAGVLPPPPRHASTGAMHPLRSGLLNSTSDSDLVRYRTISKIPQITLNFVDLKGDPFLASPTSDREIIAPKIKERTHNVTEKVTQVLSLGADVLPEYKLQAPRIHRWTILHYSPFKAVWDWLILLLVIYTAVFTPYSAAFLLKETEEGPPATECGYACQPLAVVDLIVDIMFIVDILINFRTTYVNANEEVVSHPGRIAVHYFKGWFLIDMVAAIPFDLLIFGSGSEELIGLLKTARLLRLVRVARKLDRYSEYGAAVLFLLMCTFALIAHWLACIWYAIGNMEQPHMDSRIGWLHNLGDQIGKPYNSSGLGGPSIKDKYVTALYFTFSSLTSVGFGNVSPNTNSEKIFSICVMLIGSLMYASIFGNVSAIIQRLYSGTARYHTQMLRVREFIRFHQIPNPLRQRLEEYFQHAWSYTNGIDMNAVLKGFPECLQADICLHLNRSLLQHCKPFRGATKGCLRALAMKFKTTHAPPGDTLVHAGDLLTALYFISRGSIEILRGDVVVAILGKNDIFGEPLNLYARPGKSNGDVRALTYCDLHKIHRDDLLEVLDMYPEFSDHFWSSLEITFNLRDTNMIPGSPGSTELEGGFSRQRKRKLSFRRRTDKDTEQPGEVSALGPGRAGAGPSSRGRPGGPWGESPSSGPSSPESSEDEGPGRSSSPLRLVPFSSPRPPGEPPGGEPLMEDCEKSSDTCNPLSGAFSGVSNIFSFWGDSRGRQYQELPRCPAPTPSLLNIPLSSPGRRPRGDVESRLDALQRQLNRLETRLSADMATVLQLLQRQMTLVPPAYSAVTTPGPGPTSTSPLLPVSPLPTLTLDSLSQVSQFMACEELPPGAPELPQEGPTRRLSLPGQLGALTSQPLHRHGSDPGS
row,Structure (SMILES),"hERG current change (%, negative = inhibition) at 1uM"
1,O=C(c1ccc(Cl)cc1)[C@@H]1[C@@H]2C(=O)N(c3ccccc3)C(=O)[C@@H]2C2c3ccccc3C=NN21 (some centres unmarked),3.43%
2,O=S(=O)(c1ccc(NC(=S)NCc2cccnc2)cc1)N1CCCCC1,6.23%
3,O=C(CSc1ccc2ccccc2n1)NC1CC1,13.4%
4,Nc1nc(CSC(=S)N2CCOCC2)nc(Nc2ccc(F)cc2)n1,2.72%
5,CC(NC(=O)Cc1ccc(F)cc1)C(c1cccs1)N1CCN(C)CC1 (centres unmarked),8.25%
6,CCOc1ccccc1N1CCN(C(=O)c2cc(C)oc2C)CC1,8.21%
7,COc1ccc(C(=O)c2c3ccc(C(F)(F)F)cc3[n+]([O-])n2CCCC(N)=O)cc1,-21.6%
8,Cc1nc2ccc(Br)cc2c2c1CC(CBr)O2 (centres unmarked),7.75%
9,COc1ccc(S(=O)(=O)N(CC(=O)N2CCN(C)CC2)c2ccc(C)cc2)cc1OC,4.99%
10,FC(F)(F)c1cccc(Nc2cc(-c3ccccc3)nc3ncnn23)c1,12.6%
11,CCOC(=O)c1ccc(NC(=O)CC2C(=O)N(c3cccc(OC)c3)C(=O)N2CCOC)cc1 (centres unmarked),9.03%
12,CC1CCN(C(=O)COC(=O)c2ccc(N3CCCC3=O)cc2)CC1,11.1%
13,CCOc1ccc(-n2c(N)c(C(=O)NCc3ccco3)c3nc4ccccc4nc32)cc1,1.97%
14,O=C(/C=C/c1cccs1)NC1CCS(=O)(=O)C1 (centres unmarked),13.9%
15,Cc1ccc(NC(=O)c2cc(-c3ccc(C)o3)nc3ccccc23)cc1,13.9%
16,COc1ccccc1CCC(=O)OCC(=O)NC1CCCCC1,10.5%
17,Cc1cccc(NS(=O)(=O)c2cccc(C(=O)N3CC(C)OC(C)C3)c2)c1 (centres unmarked),14.6%
18,CCN1CCN(C(=O)c2nn(-c3ccc(C)cc3)c(=O)c3c2c2ccccc2n3C)CC1,7.19%
19,Cc1ccsc1C(=O)OCC(=O)NCCCc1ccccc1,-9.97%
20,NC1=NC(=Nc2ccc(Br)cc2)c2ccccc21,9.14%
21,N#CCCN(C(=O)c1ccco1)c1ccccc1,13.3%
22,O=C1c2ccccc2S(=O)(=O)c2cc(C(=O)N3CCCC3)ccc21,14.7%
23,CC(=O)Nc1ccc(NC(=O)C2CCN(C(=O)c3ccc([N+](=O)[O-])cc3)CC2)cc1,22.3%

row,Structure (SMILES),"hERG current change (%, negative = inhibition) at 1uM"
1,Cc1cccc(C)c1NC(=O)CN1CCN(CC(=O)c2cc(C)n(C3CC3)c2C)CC1,-0.73%
2,Cc1c(N=NC2=C(O)CC(C)(C)CC2=O)cc2c(c1[N+](=O)[O-])C(C)(C)CC2(C)C,13.6%
3,CCCCNc1nc2c(S(=O)(=O)c3ccccc3)nnn2c2ccccc12,15.8%
4,COc1cccc(CN(C)C(=O)C2CSC3(C)CCC(=O)N23)c1OC (centres unmarked),11%
5,Cl.Fc1ccc(CCNCc2ccccc2Cl)cc1,3.93%
6,O=C(CNc1ccc(Br)cc1)c1ccccc1,13.6%
7,Oc1ccc(-[n+]2c(-c3ccccc3)cc(-c3ccccc3)cc2-c2ccccc2)cc1.[O-][Cl+3]([O-])([O-])[O-],5.58%
8,O=Cc1cc(N=Nc2ccccc2Cl)ccc1O,14.5%
9,COc1ccc(-c2ncnc(C(F)(F)F)c2-c2csc(C)n2)c(O)c1,10.1%
10,C[C@H]1CN=C(Nc2ccccc2)N1CCCC1CCCC1,-23.6%
11,COc1ccc(C2=Nc3cccc4cccc(c34)N2)cc1,16.9%
12,CCOc1cc(C(=O)OCC(=O)NC(C)c2ccccc2)ccc1OCC(=O)N1CCOCC1 (centres unmarked),5.73%
13,CN(C(=O)c1ccc(NC(=O)Cc2ccc(NC(=O)C3CCCN(C(=O)CCc4ccccc4)C3)cc2)cc1)C1CC1 (centres unmarked),3.78%
14,O=C(Nc1ccnn1C1CCN(Cc2ccc3nonc3c2)CC1)c1cccc(F)c1,-1.92%
15,COC(=O)C(Cc1cccc(C)n1)(c1ccccc1)c1ccccc1,8.47%
16,CCOC(=O)c1[nH]c2ccccc2c1NC(=O)c1ccc2c(c1)OCO2,-3.54%
17,Cc1ccc(-c2nsc(SCC(=O)NCC3CCCO3)n2)cc1 (centres unmarked),5.46%
18,Cc1n[nH]c(=O)c2c(NC(=O)CSc3nnc(C4CC4)n3C)oc(C)c12,9.12%
19,COc1ccccc1NS(=O)(=O)c1cccc(C(=O)N/N=C/c2ccc3c(c2)OCCO3)c1,15.7%
20,CN(C(=O)CSc1ncccc1C(=O)O)c1ccccc1,3.32%
21,Cc1ccccc1NC(=O)OCc1cn(-c2ccc(Cl)cc2)nn1,-0.894%
22,CCc1nc2ccccc2n1CCc1ccccc1.Cl,7.95%
23,Cc1cccc(N2CCN(S(=O)(=O)c3cccc4nonc34)CC2)c1C,13.1%

row,Structure (SMILES),"hERG current change (%, negative = inhibition) at 1uM"
1,Cc1nnc(SCc2ccccc2Cl)n(N)c1=O,6.01%
2,COc1ccc(C2CC(c3ccc(Br)cc3)=NN2C(=O)CSC2=NN3CCCC(=O)N=C3S2)cc1 (centres unmarked),31.1%
3,CC(=O)Nc1ccc(NC(=O)Cc2ccc(S(=O)(=O)N3CCCCC3)s2)cc1,5.23%
4,CCC(Cc1ccccc1)NC(=O)CN1C(=O)CSc2ncccc21 (centres unmarked),3.05%
5,CCOC(=O)c1snc2c(=O)[nH]cnc12,6.65%
6,Cc1ccc(C(=O)Nc2ccccc2C(=O)O)cc1S(=O)(=O)Nc1ccccc1,7.94%
7,CCOc1ncccc1C(=O)Nc1nnc(C(CC)CC)s1,5.97%
8,CCOP(=O)(OCC)C(NC(=O)c1cccs1)c1ccccc1 (centres unmarked),12.8%
9,COc1cccc2c1O/C(=N\O)C(C(=O)Nc1ccc(C)cc1)C2 (centres unmarked),12%
10,CC1CCC2C(C1)Nc1c(C(=O)O)cccc1C2(C)C (centres unmarked),28%
11,Cc1nn(C)cc1NC(=O)Cn1nc(C(F)(F)F)cc1C1CC1,10.1%
12,O=C(CSc1ncccn1)Nc1ccccc1,7.86%
13,CSc1nnc(-c2ccc(Br)s2)n1C,10.5%
14,CC(=O)/C(N=Nc1cc2c(c([N+](=O)[O-])c1C)C(C)(C)CC2(C)C)=C(\C)O,-0.089%
15,O=C(OCC(=O)N1CCN(c2ccccc2)CC1)c1ccc[n+]([O-])c1,8.51%
16,CCN(CC)S(=O)(=O)c1cccc2cccnc12,2.86%
17,Cc1nc(-c2ccccc2)nn1-c1ccc([N+](=O)[O-])cc1,-2.48%
18,CCOC(=O)c1cc(C)n(Cc2ccccc2)c1C,8.26%
19,O=C(N/N=C/C1CC2CCC1C2)C1CC1 (centres unmarked),32.5%
20,CCN1C(=O)N(C)C(N(O)C(=O)NC)C1(C)C (centres unmarked),0.825%
21,Cc1ccc(C(=O)N/C(=C\c2cccs2)C(=O)N2CCCCCC2)cc1,-19.3%
22,COc1ccc(C(=O)NCC(=O)Nc2ccccc2)cc1OC,19.7%
23,Cc1ccsc1C(=O)OCC(=O)N(C)c1c(N)n(Cc2ccccc2)c(=O)[nH]c1=O,34.6%

row,Structure (SMILES),"hERG current change (%, negative = inhibition) at 1uM"
1,Cc1noc(C)c1CSCC(=O)Nc1cc(S(=O)(=O)N2CCOCC2)ccc1OC(C)C,-5.31%
2,O=C(O)c1ccc(-c2nnc(-c3cccc(Br)c3)o2)cc1,12.8%
3,O=P(N[C@@H](c1ccccc1)[C@@H]1C[C@H]1CO)(c1ccccc1)c1ccccc1,6.42%
4,COc1ccc(OC)c2[nH]c(=O)c(CCNS(=O)(=O)c3ccc(C)cc3)cc12,-15.5%
5,CC1(OC(=O)CCc2ccccc2)C(=O)C=C2C=C(c3ccc(C#N)cc3)N(CC3CC3)C=C2C1=O (centres unmarked),0.927%
6,Cc1cc(N2CCN(C(=O)/C=C/C(=O)O)CC2)c2ccccc2n1,23%
7,O=C(CC1C(=O)NCCN1CC1CCCCC1)NCc1ccc(F)cc1 (centres unmarked),-0.382%
8,Cc1cccc(C(=O)NCCC(=O)Nc2ccc(C#N)cc2)c1,18.4%
9,Cc1cccn2c(=O)nc(SCC(=O)N3CCCC3)nc12,-2.45%
10,COc1ccc(/C=C2\CCC(C3CCCC3)C2=O)cc1Cn1nc(C)cc1C (centres unmarked),7.9%
11,CC(=O)NC(CC(=O)Nc1ccc2c(c1)OCCO2)c1ccccc1 (centres unmarked),11.2%
12,Oc1cc(Cl)ccc1Oc1ccc(Cl)cc1Cl,8.1%
13,CCN(CC)c1ccc(CN2CC=C(c3ccc(F)cc3)CC2)cc1,3.12%
14,CCN(CC)S(=O)(=O)c1ccc(N2CCN(S(=O)(=O)c3ccccc3C#N)CC2)nc1,4.48%
15,COc1cc(-c2c(C#N)c(N)nc(SCc3ccncc3)c2C#N)cc(OC)c1OC,2.82%
16,Cc1cccc(Nc2ncnc3onc(-c4cccc(Cl)c4)c23)c1C,1.98%
17,Cc1ccc2nc(Cl)c(/C=N/NC(=O)CN3CCOCC3)cc2c1,7.61%
18,O=C(CSCc1ccco1)c1ccc(Cl)s1,13.2%
19,CC(=O)Nc1ccc(C(=O)Cn2c3[n+](c4c(F)c(F)ccc42)CCCCC3)cc1.[Br-],7.9%
20,O=C(c1cc2ncccn2n1)N1CCc2c([nH]c3ccccc23)C1c1ccccc1F (centres unmarked),12.1%
